{"source": "PubChem BioAssay AID463173", "about": "(ICCB-Longwood Screening Facility, Harvard Medical School, 2010)", "note": "Among all 52,000 compounds or so, about 4,300 (8.3%) were called active. No stated cut-off is given here; in the data, active means survival mostly below about 52% (no sharp cut-off); inactive means mostly above about 56%. Some of the results follow.", "data": [{"tested_on": "DeltatarO mutant", "assay": "S. aureus survival, RN4220 and DeltatarO strains – OD600, teichoic acid synthesis inhibitors, primary screen (AID 463173)", "details": "S. aureus RN4220 wild type/DeltatarO growth, OD600, 18 h, stronger effect = lower value, screened at 18.75 µg/mL (by protocol)", "values": [{"smiles": "Cc1ccc(CSCCNC(=O)C2CCN(S(=O)(=O)Cc3ccccc3)CC2)cc1", "survival": "inactive: 99%"}, {"smiles": "O=C(O)CSCC(=O)Nc1cccc(C(F)(F)F)c1", "survival": "inactive: 80%"}, {"smiles": "CCCCCOc1ccccc1CN1C(=O)C(=O)c2cc(C)ccc21", "survival": "inactive: 151%"}, {"smiles": "CCc1ccc(/C=C(/C#N)C(=O)OC)s1", "survival": "inactive: 73%"}, {"smiles": "CC1(C)CC(NCc2ccccc2)CCO1", "note": "(stereo not drawn)", "survival": "inactive: 79%"}, {"smiles": "Cc1ccc(/C=C/C(=O)N2CCC(c3nc4ccccc4o3)CC2)cc1", "survival": "inactive: 87%"}, {"smiles": "COc1ccc(NC(=O)c2c(NCc3ccc(OC)c(OC)c3OC)sc3c2CCC3)c(OC)c1", "survival": "inactive: 83%"}, {"smiles": "Cc1ccc(-n2nc3c(N4CCC(C(=O)NC5CCCCC5)CC4)nnc(C)c3c2C)cc1", "survival": "inactive: 81%"}, {"smiles": "Cc1ccc(N2C(=O)CSC2=S)c(C)c1", "survival": "inactive: 96%"}, {"smiles": "COc1ccc(-c2ccc(CNCCCSc3nnnn3C)o2)cc1Cl", "survival": "inactive: 79%"}, {"smiles": "COc1ccc(-n2ncc(C(=O)N3CCN(C(=O)c4ccco4)CC3)c2C2CCN(C(=O)OC(C)(C)C)CC2)cc1", "survival": "inactive: 86%"}, {"smiles": "CC(C)Cc1ccc(S(=O)(=O)NCc2nc3cccnc3n2Cc2ccccc2)cc1", "survival": "inactive: 109%"}, {"smiles": "C=CCn1c(O)c(CN2CCOCC2)c(C)c(C#N)c1=O", "survival": "inactive: 89%"}, {"smiles": "CC1=C(C(N)=O)C(c2cccc(Br)c2)n2nc(SCc3ccccc3Cl)nc2N1", "note": "(stereo not drawn)", "survival": "inactive: 80%"}, {"smiles": "CCc1nc2ccc(C(=O)N3CCN(c4cc(C)ccc4C)CC3)cc2nc1CC", "survival": "inactive: 66%"}, {"smiles": "Fc1ccc(CSc2nncn3c2cc2occc23)c(Cl)c1", "survival": "inactive: 58%"}, {"smiles": "CCOc1ccc(CCNC(=O)c2cc3sccc3n2CC)cc1OCC", "survival": "inactive: 90%"}, {"smiles": "Cc1onc(-c2ccccc2)c1C(=O)NC(C)C", "survival": "inactive: 78%"}, {"smiles": "Cc1ccc(N(C)S(=O)(=O)c2ccc(-c3coc(C)n3)cc2)cc1", "survival": "inactive: 75%"}, {"smiles": "Cc1cccc(-c2noc(-c3ccc(NCc4ccccc4)c([N+](=O)[O-])c3)n2)c1", "survival": "inactive: 80%"}, {"smiles": "CC1=C(c2ccc(C)c(C)c2)S(=O)(=O)N=C1N1CCC(C(=O)NCc2ccccc2C)CC1", "survival": "inactive: 76%"}, {"smiles": "COc1ccccc1N1CCN(CCCNC(=O)c2nnc(Cc3ccc(F)cc3Cl)o2)CC1", "survival": "inactive: 74%"}, {"smiles": "Cc1ccc(NC(=O)CN2C(=O)COc3ccc(S(=O)(=O)N4CCOCC4)cc32)cc1N(C)C", "survival": "inactive: 99%"}, {"smiles": "CCCCOc1ccccc1Cn1c(=O)sc2ccccc21", "survival": "active: -2%"}, {"smiles": "CC1CCN(c2ccc(C(=O)O)cc2)CC1", "survival": "inactive: 62%"}, {"smiles": "CCOc1ccc(C(=O)Nc2cccc(NC(=O)c3ccc(Cl)cc3Cl)c2)cc1", "survival": "inactive: 75%"}, {"smiles": "Cc1cccc(NC(=O)CN(C)S(=O)(=O)c2ccc3c(c2)CCC(=O)N3)c1C", "survival": "inactive: 93%"}, {"smiles": "Clc1cc2c(cc1C=Nc1ccc(N3CCOCC3)cc1)OCO2", "survival": "inactive: 83%"}, {"smiles": "Cc1cccc(CCNC(=O)c2cc3c(=O)[nH]c4ccc(C)cc4c3s2)c1", "survival": "inactive: 47%"}, {"smiles": "COc1ccccc1CNc1nc2ccccc2c2nc(-c3cccc(C)c3)nn12", "survival": "active: 24%"}, {"smiles": "COc1ccc(-c2nc3sc(CCNC(=O)C(=O)Nc4cc(F)ccc4F)c(C)n3n2)cc1", "survival": "inactive: 61%"}, {"smiles": "COc1cc([N+](=O)[O-])ccc1NC(=O)N1CCC2(CC1)Nc1ccccc1-n1cccc12", "survival": "active: 37%"}, {"smiles": "CCn1cc(C(=O)NCCN(CC(C)C)CC(C)C)c(=O)c2cc(S(=O)(=O)N(C)C3CCCCC3)ccc21", "survival": "inactive: 92%"}, {"smiles": "CCOCCCn1c(SCC(=O)NCc2ccccc2)nc2c(sc3ccccc32)c1=O", "survival": "active: -5%"}, {"smiles": "Cn1c(=O)n(C)c2cc(N3CCOCC3)c(NC(=O)c3ccc(C(C)(C)C)cc3)cc21", "survival": "inactive: 80%"}, {"smiles": "COc1ccc(NC(=O)c2nnn(CC(=O)Nc3cccc(C)c3C)c2N)c(OC)c1", "survival": "inactive: 60%"}, {"smiles": "O=C(CSc1nnc(COc2ccc(F)cc2)o1)N1c2ccccc2CCc2ccccc21", "survival": "inactive: 65%"}, {"smiles": "CCOC(=O)c1cccc(NS(=O)(=O)c2ccc(-c3coc(C)n3)cc2)c1", "survival": "inactive: 80%"}, {"smiles": "COc1cc2c(cc1NC(=O)COc1ccc(Br)cc1)oc1ccccc12", "survival": "inactive: 72%"}, {"smiles": "Cc1cc(C)c(NC(=O)C2CCN(C(=O)N3CCOc4ccccc43)CC2)c(C)c1", "survival": "inactive: 71%"}, {"smiles": "CCOc1ccc2nc(NCCCNS(=O)(=O)c3ccccc3)c(C#N)cc2c1", "survival": "inactive: 79%"}, {"smiles": "COC(=O)c1ccc2c(=O)n(CCc3ccc(S(N)(=O)=O)cc3)c(SCC(=O)C(C)(C)C)nc2c1", "survival": "inactive: 72%"}, {"smiles": "COc1ccc(-c2cc(C(F)(F)F)n3ncc(-c4ccccc4)c3n2)cc1", "survival": "inactive: 49%"}, {"smiles": "CCc1cccc(N2C(=O)CS(=O)(=O)C23C(=O)N(Cc2ccccc2)c2ccc(C)cc23)c1", "note": "(stereo not drawn)", "survival": "inactive: 84%"}, {"smiles": "CSc1ccc(CNC(=O)c2sc3ncnc(N(C)C4CCCCC4)c3c2C)cc1", "survival": "inactive: 64%"}, {"smiles": "Cc1cccc(C(=O)N2c3ncnn3C3(CCCCC3)[C@@H]3CCCC[C@@H]32)c1", "survival": "inactive: 82%"}, {"smiles": "Cc1cccc(Nc2cc(C)nc(-n3nc(C)cc3C)n2)c1", "survival": "inactive: 84%"}, {"smiles": "Cc1c(C(=O)Nc2ccc(F)cc2)oc2ccc(S(=O)(=O)N3CCCCCC3)cc12", "survival": "inactive: 99%"}, {"smiles": "CCOC(=O)c1c(C)[nH]c(C)c1S(=O)(=O)N1CCCC(C(=O)Nc2cccc(CC)c2)C1", "note": "(stereo not drawn)", "survival": "inactive: 85%"}, {"smiles": "COc1cccc(NC(=O)/C(C#N)=C/c2c(C)n(Cc3ccccc3)c3ccccc23)c1", "survival": "inactive: 82%"}, {"smiles": "CCOc1ccc(NC(=O)CCc2c(C)nc3nc(-c4cc(OC)cc(OC)c4)nn3c2C)cc1", "survival": "inactive: 78%"}, {"smiles": "CC(=O)N1CCc2cc(Br)cc(S(=O)(=O)NCCc3cccc(C)c3)c21", "survival": "inactive: 75%"}, {"smiles": "CS(=O)(=O)N(CC(=O)Nc1cccnc1)c1ccc(Cl)cc1", "survival": "inactive: 91%"}, {"smiles": "Fc1ccc(C(NCCc2ccc(Cl)cc2)c2nnc(-c3ccccc3Cl)o2)cc1", "note": "(stereo not drawn)", "survival": "active: 26%"}, {"smiles": "COc1cc(C(=O)OCn2c(=O)oc3ccccc32)cc(OC)c1OC", "survival": "inactive: 81%"}, {"smiles": "COCCCNc1nc(CC(C)C)nc2c1nnn2Cc1ccccc1", "survival": "inactive: 81%"}, {"smiles": "O=C(Nc1ccc(Cl)c(C(F)(F)F)c1)c1nc2ccccc2nc1N1CCCCC1", "survival": "inactive: 80%"}, {"smiles": "COc1ccccc1Nc1nc(N)nc(N)c1S(=O)(=O)c1ccccc1", "survival": "inactive: 111%"}]}]}
